# The list shows a part of the results.
# Columns and labels:
# Assay in all cases: glycan array binding signal (z-score within array); higher = stronger binding
# Details in all cases: glycan notation: IUPAC condensed, linker removed
# [1] = target: Neu5Ac(a2-3)Gal(b1-4)GlcNAc(b1-2)Man(a1-3)[Neu5Ac(a2-3)Gal(b1-4)GlcNAc(b1-2)Man(a1-6)]Man(b1-4)GlcNAc(b1-4)[Fuc(a1-6)]GlcNAc
# How it was run: (§1)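 Glycan array data came from 3228 arrays in the Consortium for Functional Glycomics database, and only arrays with an available protein sequence were kept. Glycan names were put into IUPAC-condensed notation, and columns mapping to the same glycan were averaged. The binding signal is a within-array Z-score, averaged across arrays of one protein sequence run at different concentrations or buffers and across linkers. A negative Z-score can be read as non-binding.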
# [2] = target: Neu5Ac(a2-3)Gal(b1-4)GlcNAc(b1-2)Man(a1-3)[Neu5Ac(a2-6)Gal(b1-4)GlcNAc(b1-2)Man(a1-6)]Man(b1-4)GlcNAc(b1-4)GlcNAc
# How it was run: as §1
# [3] = target: Neu5Ac(a2-3)Gal(b1-4)GlcNAc(b1-2)[Neu5Ac(a2-3)Gal(b1-4)GlcNAc(b1-4)]Man(a1-3)[GlcNAc(b1-4)][Neu5Ac(a2-3)Gal(b1-4)GlcNAc(b1-2)[Neu5Ac(a2-3)Gal(b1-4)GlcNAc(b1-6)]Man(a1-6)]Man(b1-4)GlcNAc(b1-4)GlcNAc
# How it was run: as §1
# [4] = target: Neu5Ac(a2-3)Gal(b1-4)GlcNAc(b1-2)[Neu5Ac(a2-3)Gal(b1-4)GlcNAc(b1-4)]Man(a1-3)[GlcNAc(b1-4)][Neu5Ac(a2-3)Gal(b1-4)GlcNAc(b1-4)Man(a1-6)]Man(b1-4)GlcNAc(b1-4)GlcNAc
# How it was run: as §1
# [5] = target: Neu5Ac(a2-3)Gal(b1-4)GlcNAc(b1-2)[Neu5Ac(a2-3)Gal(b1-4)GlcNAc(b1-6)]Man(a1-6)[Neu5Ac(a2-3)Gal(b1-4)GlcNAc(b1-2)Man(a1-3)]Man(b1-4)GlcNAc(b1-4)GlcNAc
# How it was run: as §1
# [6] = target: Neu5Ac(a2-3)Gal(b1-4)GlcNAc(b1-2)[Neu5Ac(a2-3)Gal(b1-4)GlcNAc(b1-6)]Man(a1-6)[Neu5Ac(a2-3)Gal(b1-4)GlcNAc(b1-2)Man(a1-3)][GlcNAc(b1-4)]Man(b1-4)GlcNAc(b1-4)GlcNAc
# How it was run: as §1
# [7] = target: Neu5Ac(a2-3)Gal(b1-4)GlcNAc(b1-3)Gal
# How it was run: as §1
# [8] = target: Neu5Ac(a2-3)Gal(b1-4)GlcNAc(b1-3)Gal(b1-3)GlcNAc
# How it was run: as §1
# [9] = target: Neu5Ac(a2-3)Gal(b1-4)GlcNAc(b1-3)Gal(b1-4)GlcNAc
# How it was run: as §1
# [10] = target: Neu5Ac(a2-3)Gal(b1-4)GlcNAc(b1-3)Gal(b1-4)GlcNAc(b1-2)Man(a1-3)[Neu5Ac(a2-3)Gal(b1-4)GlcNAc(b1-3)Gal(b1-4)GlcNAc(b1-2)Man(a1-6)]Man(b1-4)GlcNAc(b1-4)GlcNAc
# How it was run: as §1
# [11] = target: Neu5Ac(a2-3)Gal(b1-4)GlcNAc(b1-3)Gal(b1-4)GlcNAc(b1-3)Gal(b1-4)GlcNAc
# How it was run: as §1
# [12] = target: Neu5Ac(a2-3)Gal(b1-4)GlcNAc(b1-3)Gal(b1-4)GlcNAc(b1-3)Gal(b1-4)GlcNAc(b1-2)Man(a1-3)[Neu5Ac(a2-3)Gal(b1-4)GlcNAc(b1-3)Gal(b1-4)GlcNAc(b1-3)Gal(b1-4)GlcNAc(b1-2)Man(a1-6)]GalNAc
# How it was run: as §1
# [13] = target: Neu5Ac(a2-3)Gal(b1-4)GlcNAc(b1-3)Gal(b1-4)GlcNAc(b1-3)GalNAc
# How it was run: as §1
# [14] = target: Neu5Ac(a2-3)Gal(b1-4)GlcNAc(b1-3)Gal(b1-4)GlcNAc(b1-3)[Neu5Ac(a2-3)Gal(b1-4)GlcNAc(b1-3)Gal(b1-4)GlcNAc(b1-6)]GalNAc
# How it was run: as §1
# [15] = target: Neu5Ac(a2-3)Gal(b1-4)GlcNAc(b1-3)Gal(b1-4)GlcNAc(b1-6)[Gal(b1-3)]GalNAc
# How it was run: as §1
# [16] = target: Neu5Ac(a2-3)Gal(b1-4)GlcNAc(b1-3)Gal(b1-4)[Fuc(a1-3)]GlcNAc
# How it was run: as §1
# [17] = target: Neu5Ac(a2-3)Gal(b1-4)GlcNAc(b1-3)GalNAc
# How it was run: as §1
# [18] = target: Neu5Ac(a2-3)Gal(b1-4)GlcNAc(b1-3)[Neu5Ac(a2-3)Gal(b1-4)GlcNAc(b1-6)]GalNAc
# How it was run: as §1
# [19] = target: Neu5Ac(a2-3)Gal(b1-4)GlcNAc(b1-6)GalNAc
# How it was run: as §1
# [20] = target: Neu5Ac(a2-3)Gal(b1-4)GlcNAc(b1-6)[Gal(b1-3)]GalNAc
# How it was run: as §1
# [21] = target: Neu5Ac(a2-3)Gal(b1-4)GlcNAc(b1-6)[Neu5Ac(a2-3)Gal(b1-3)]GalNAc
# How it was run: as §1
# [22] = target: Neu5Ac(a2-3)Gal(b1-4)GlcNAc6S
# How it was run: as §1
# [23] = target: Neu5Ac(a2-3)Gal(b1-4)[Fuc(a1-3)]GlcNAc
# How it was run: as §1
# [24] = target: Neu5Ac(a2-3)Gal(b1-4)[Fuc(a1-3)]GlcNAc(b1-2)Man
# How it was run: as §1
# [25] = target: Neu5Ac(a2-3)Gal(b1-4)[Fuc(a1-3)]GlcNAc(b1-3)Gal
# How it was run: as §1
# [26] = target: Neu5Ac(a2-3)Gal(b1-4)[Fuc(a1-3)]GlcNAc(b1-3)Gal(b1-4)GlcNAc
# How it was run: as §1
# [27] = target: Neu5Ac(a2-3)Gal(b1-4)[Fuc(a1-3)]GlcNAc(b1-3)Gal(b1-4)[Fuc(a1-3)]GlcNAc(b1-3)Gal(b1-4)[Fuc(a1-3)]GlcNAc
# How it was run: as §1
# [28] = target: Neu5Ac(a2-3)Gal(b1-4)[Fuc(a1-3)]GlcNAc(b1-3)GalNAc
# How it was run: as §1
# [29] = target: Neu5Ac(a2-3)Gal(b1-4)[Fuc(a1-3)]GlcNAc(b1-6)[Gal(b1-3)]GalNAc
# How it was run: as §1
# [30] = target: Neu5Ac(a2-3)Gal(b1-4)[Fuc(a1-3)]GlcNAc(b1-6)[Neu5Ac(a2-3)Gal(b1-3)]GalNAc
# How it was run: as §1
# [31] = target: Neu5Ac(a2-3)Gal(b1-4)[Fuc(a1-3)]GlcNAc6S
# How it was run: as §1
# [32] = target: Neu5Ac(a2-3)Gal6S(b1-4)GlcNAc
# How it was run: as §1
# [33] = target: Neu5Ac(a2-3)Gal6S(b1-4)[Fuc(a1-3)]GlcNAc
# How it was run: as §1
# [34] = target: Neu5Ac(a2-3)GalNAc
# How it was run: as §1
# [35] = target: Neu5Ac(a2-3)GalNAc(b1-4)GlcNAc
# How it was run: as §1
# [36] = target: Neu5Ac(a2-3)[GalNAc(b1-4)]Gal(b1-4)Glc
# How it was run: as §1
# [37] = target: Neu5Ac(a2-3)[GalNAc(b1-4)]Gal(b1-4)GlcNAc
# How it was run: as §1
binder,measurement,setting,value
"Epa9 (Candida glabrata), CAGL0A01386g (protein) MGSSHHHHHHSSGLVPRGSHMDITPFAHYPRPEGCSSPPNAVSVGLHMDLYNYPYLYVKNPRTGFTNDTDSDADGETDGDSAGGIEGRAGQCWNPEYQDPNFPRYGYKKYGSFGSSDHVNGKISWDHNEFKEGCKPIMARLPTAYNYPAKITFSNFTMVLSGYFKPKSTGLYKFEIHADDFILFNFGSKNAFECCNREESIDNFGPYVAYAMWPNEADQELEVYLFEDSYYPIRLFYNNRDYHSKFMVGFYPPNTEEITYDFDGYLYMLDDTGNECKDSIRYKTVCDD",glycan array binding signal (z-score),[1],-0.466
same,glycan array binding signal (z-score),[2],-0.429
same,glycan array binding signal (z-score),[3],-0.447
same,glycan array binding signal (z-score),[4],-0.429
same,glycan array binding signal (z-score),[5],-0.439
same,glycan array binding signal (z-score),[6],-0.453
same,glycan array binding signal (z-score),[7],-0.478
same,glycan array binding signal (z-score),[8],-0.478
same,glycan array binding signal (z-score),[9],-0.441
same,glycan array binding signal (z-score),[10],0.335
same,glycan array binding signal (z-score),[11],-0.407
same,glycan array binding signal (z-score),[12],-0.275
same,glycan array binding signal (z-score),[13],-0.387
same,glycan array binding signal (z-score),[14],0.398
same,glycan array binding signal (z-score),[15],0.423
same,glycan array binding signal (z-score),[16],-0.587
same,glycan array binding signal (z-score),[17],-0.466
same,glycan array binding signal (z-score),[18],-0.436
same,glycan array binding signal (z-score),[19],-0.495
same,glycan array binding signal (z-score),[20],0.798
same,glycan array binding signal (z-score),[21],-0.464
same,glycan array binding signal (z-score),[22],-0.442
same,glycan array binding signal (z-score),[23],-0.44
same,glycan array binding signal (z-score),[24],-0.452
same,glycan array binding signal (z-score),[25],-0.474
same,glycan array binding signal (z-score),[26],-0.253
same,glycan array binding signal (z-score),[27],-0.479
same,glycan array binding signal (z-score),[28],0.004
same,glycan array binding signal (z-score),[29],-0.217
same,glycan array binding signal (z-score),[30],-0.256
same,glycan array binding signal (z-score),[31],-0.455
same,glycan array binding signal (z-score),[32],-0.488
same,glycan array binding signal (z-score),[33],-0.477
same,glycan array binding signal (z-score),[34],-0.492
same,glycan array binding signal (z-score),[35],-0.465
same,glycan array binding signal (z-score),[36],-0.447
same,glycan array binding signal (z-score),[37],-0.462
